The other results are listed elsewhere or left out.
Legend:
Test in all cases: glycan array binding signal (z-score within array); higher = stronger binding
Conditions in all cases: glycan notation: IUPAC condensed, linker removed
Gal(b1-4)GlcNAc6P = target: Gal(b1-4)GlcNAc6P
Method in brief: (§1)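 Glycan array data were curated from 3228 arrays in the Consortium for Functional Glycomics database and kept only where the protein sequence was available. Glycan names were converted to IUPAC-condensed notation, and columns mapping to the same glycan were averaged. The binding signal is a within-array Z-score, averaged across arrays of the same protein sequence at different concentrations or buffers and across linkers. Negative Z-scores can be read as non-binding.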

Gal(b1-6)Gal = target: Gal(b1-6)Gal
Method in brief: as §1

Gal3S(b1-3)GalNAc = target: Gal3S(b1-3)GalNAc
Method in brief: as §1

Gal3S(b1-3)GlcNAc = target: Gal3S(b1-3)GlcNAc
Method in brief: as §1

[1] = target: Gal3S(b1-3)[Fuc(a1-4)]GlcNAc
Method in brief: as §1

Gal3S(b1-4)Glc = target: Gal3S(b1-4)Glc
Method in brief: as §1

Gal3S(b1-4)Glc6S = target: Gal3S(b1-4)Glc6S
Method in brief: as §1

Gal3S(b1-4)GlcNAc = target: Gal3S(b1-4)GlcNAc
Method in brief: as §1

[2] = target: Gal3S(b1-4)[Fuc(a1-3)]Glc6S
Method in brief: as §1

[3] = target: Gal3S(b1-4)[Fuc(a1-3)]GlcNAc
Method in brief: as §1

[4] = target: Gal3S(b1-4)[Fuc(a1-3)]GlcNAc6S
Method in brief: as §1

Gal3S4S(b1-4)GlcNAc = target: Gal3S4S(b1-4)GlcNAc
Method in brief: as §1

Gal3S6S(b1-4)GlcNAc = target: Gal3S6S(b1-4)GlcNAc
Method in brief: as §1

Gal3S6S(b1-4)GlcNAc6S = target: Gal3S6S(b1-4)GlcNAc6S
Method in brief: as §1

Gal4S(b1-4)GlcNAc = target: Gal4S(b1-4)GlcNAc
Method in brief: as §1

Gal4S6S(b1-4)GlcNAc = target: Gal4S6S(b1-4)GlcNAc
Method in brief: as §1

Gal6P(b1-4)GlcNAc = target: Gal6P(b1-4)GlcNAc
Method in brief: as §1

Gal6S(b1-3)GlcNAc = target: Gal6S(b1-3)GlcNAc
Method in brief: as §1

Gal6S(b1-3)GlcNAc6S = target: Gal6S(b1-3)GlcNAc6S
Method in brief: as §1

Gal6S(b1-4)Glc = target: Gal6S(b1-4)Glc
Method in brief: as §1

Gal6S(b1-4)Glc6S = target: Gal6S(b1-4)Glc6S
Method in brief: as §1

Gal6S(b1-4)GlcNAc = target: Gal6S(b1-4)GlcNAc
Method in brief: as §1

Gal6S(b1-4)GlcNAc6S = target: Gal6S(b1-4)GlcNAc6S
Method in brief: as §1

GalNAc(a1-3)Gal = target: GalNAc(a1-3)Gal
Method in brief: as §1

GalNAc(a1-3)GalNAc = target: GalNAc(a1-3)GalNAc
Method in brief: as §1

[5] = target: GalNAc(a1-3)GalNAc(a1-3)Gal(a1-4)Gal(b1-4)GlcNAc
Method in brief: as §1

[6] = target: GalNAc(a1-3)GalNAc(b1-3)Gal(a1-4)Gal(b1-4)Glc
Method in brief: as §1

[7] = target: GalNAc(a1-3)GalNAc(b1-3)Gal(a1-4)Gal(b1-4)GlcNAc
Method in brief: as §1

GalNAc(b1-3)Gal = target: GalNAc(b1-3)Gal
Method in brief: as §1

[8] = target: GalNAc(b1-3)Gal(a1-4)Gal(b1-4)GlcNAc
Method in brief: as §1

[9] = target: GalNAc(b1-3)Gal(a1-4)Gal(b1-4)GlcNAc(b1-3)Gal(b1-4)Glc
Method in brief: as §1

[10] = target: GalNAc(b1-3)Gal(a1-6)Gal(b1-4)Glc
Method in brief: as §1

GalNAc(b1-3)GalNAc = target: GalNAc(b1-3)GalNAc
Method in brief: as §1

GalNAc(b1-3)GlcNAc = target: GalNAc(b1-3)GlcNAc
Method in brief: as §1

GalNAc(b1-4)Gal(b1-4)Glc = target: GalNAc(b1-4)Gal(b1-4)Glc
Method in brief: as §1

GalNAc(b1-4)GlcNAc = target: GalNAc(b1-4)GlcNAc
Method in brief: as §1

[11] = target: GalNAc(b1-4)GlcNAc(b1-2)Man
Method in brief: as §1

[12] = target: GalNAc(b1-4)GlcNAc(b1-2)Man(a1-3)[GalNAc(b1-4)GlcNAc(b1-2)Man(a1-6)]Man(b1-4)GlcNAc(b1-4)GlcNAc
Method in brief: as §1

[13] = target: GalNAc(b1-4)GlcNAc(b1-3)GalNAc(b1-4)GlcNAc
Method in brief: as §1

GalNAc(b1-4)GlcNAc6S = target: GalNAc(b1-4)GlcNAc6S
Method in brief: as §1

GalNAc(b1-6)GalNAc = target: GalNAc(b1-6)GalNAc
Method in brief: as §1

GalNAc3S(b1-4)GlcNAc = target: GalNAc3S(b1-4)GlcNAc
Method in brief: as §1

GalNAc3S(b1-4)GlcNAc3S = target: GalNAc3S(b1-4)GlcNAc3S
Method in brief: as §1

[14] = target: GalNAc3S(b1-4)[Fuc(a1-3)]GlcNAc
Method in brief: as §1

GalNAc4S6S(b1-4)GlcNAc = target: GalNAc4S6S(b1-4)GlcNAc
Method in brief: as §1

B1: rMpL (Macrolepiota procera) (protein)
chain: MSTQVSSGRTYKITNVIAGTVIDLSGEDNKSIIGYPYHSGKNQQWTFNWTGKAWTLRSASSGSYLGIEGTPAGGTRLVAVNDPFEWHIWRDEANENAFRIFVPFTNYNLDLSGYGDTTPGTPVQLWWTWEGLHQTWTIDRP
Question: For B1, which “glycan array binding signal (z-score)” value (Gal(b1-4)GlcNAc6P) is on record?
Answer: -0.602

Question: And the “glycan array binding signal (z-score)” value (Gal(b1-6)Gal)?
Answer: -0.301

Question: What about the “glycan array binding signal (z-score)” value (Gal3S(b1-3)GalNAc) of the same binder?
Answer: -0.327

Question: What about the “glycan array binding signal (z-score)” value (Gal3S(b1-3)GlcNAc) of the same binder?
Answer: -0.375

Question: What about the “glycan array binding signal (z-score)” value [1] of the same binder?
Answer: -0.271

Question: And the “glycan array binding signal (z-score)” value (Gal3S(b1-4)Glc)?
Answer: -0.325

Question: And the “glycan array binding signal (z-score)” value (Gal3S(b1-4)Glc6S)?
Answer: -0.352

Question: What about the “glycan array binding signal (z-score)” value (Gal3S(b1-4)GlcNAc) of the same binder?
Answer: -0.326

Question: What about the “glycan array binding signal (z-score)” value [2] of the same binder?
Answer: -0.194

Question: And the “glycan array binding signal (z-score)” value [3]?
Answer: -0.312

Question: What about the “glycan array binding signal (z-score)” value [4] of the same binder?
Answer: -0.333

Question: What about the “glycan array binding signal (z-score)” value (Gal3S4S(b1-4)GlcNAc) of the same binder?
Answer: -0.373

Question: And the “glycan array binding signal (z-score)” value (Gal3S6S(b1-4)GlcNAc)?
Answer: -0.312

Question: What about the “glycan array binding signal (z-score)” value (Gal3S6S(b1-4)GlcNAc6S) of the same binder?
Answer: -0.288

Question: And the “glycan array binding signal (z-score)” value (Gal4S(b1-4)GlcNAc)?
Answer: -0.407

Question: And the “glycan array binding signal (z-score)” value (Gal4S6S(b1-4)GlcNAc)?
Answer: -0.434

Question: What about the “glycan array binding signal (z-score)” value (Gal6P(b1-4)GlcNAc) of the same binder?
Answer: -0.34

Question: And the “glycan array binding signal (z-score)” value (Gal6S(b1-3)GlcNAc)?
Answer: -0.201

Question: What about the “glycan array binding signal (z-score)” value (Gal6S(b1-3)GlcNAc6S) of the same binder?
Answer: -0.439

Question: And the “glycan array binding signal (z-score)” value (Gal6S(b1-4)Glc)?
Answer: -0.233

Question: What about the “glycan array binding signal (z-score)” value (Gal6S(b1-4)Glc6S) of the same binder?
Answer: -0.362

Question: And the “glycan array binding signal (z-score)” value (Gal6S(b1-4)GlcNAc)?
Answer: -0.209

Question: What about the “glycan array binding signal (z-score)” value (Gal6S(b1-4)GlcNAc6S) of the same binder?
Answer: -0.32

Question: And the “glycan array binding signal (z-score)” value (GalNAc(a1-3)Gal)?
Answer: -0.326

Question: What about the “glycan array binding signal (z-score)” value (GalNAc(a1-3)GalNAc) of the same binder?
Answer: -0.265

Question: And the “glycan array binding signal (z-score)” value [5]?
Answer: -0.392

Question: And the “glycan array binding signal (z-score)” value [6]?
Answer: -0.304

Question: And the “glycan array binding signal (z-score)” value [7]?
Answer: -0.288

Question: And the “glycan array binding signal (z-score)” value (GalNAc(b1-3)Gal)?
Answer: -0.189

Question: What about the “glycan array binding signal (z-score)” value [8] of the same binder?
Answer: -0.097

Question: And the “glycan array binding signal (z-score)” value [9]?
Answer: -0.134

Question: What about the “glycan array binding signal (z-score)” value [10] of the same binder?
Answer: -0.277

Question: What about the “glycan array binding signal (z-score)” value (GalNAc(b1-3)GalNAc) of the same binder?
Answer: -0.311

Question: What about the “glycan array binding signal (z-score)” value (GalNAc(b1-3)GlcNAc) of the same binder?
Answer: 0.11

Question: What about the “glycan array binding signal (z-score)” value (GalNAc(b1-4)Gal(b1-4)Glc) of the same binder?
Answer: -0.208

Question: What about the “glycan array binding signal (z-score)” value (GalNAc(b1-4)GlcNAc) of the same binder?
Answer: 0.483

Question: And the “glycan array binding signal (z-score)” value [11]?
Answer: 0.409

Question: What about the “glycan array binding signal (z-score)” value [12] of the same binder?
Answer: 1.16

Question: And the “glycan array binding signal (z-score)” value [13]?
Answer: 2.87

Question: And the “glycan array binding signal (z-score)” value (GalNAc(b1-4)GlcNAc6S)?
Answer: -0.293

Question: And the “glycan array binding signal (z-score)” value (GalNAc(b1-6)GalNAc)?
Answer: -0.314

Question: And the “glycan array binding signal (z-score)” value (GalNAc3S(b1-4)GlcNAc)?
Answer: -0.39

Question: And the “glycan array binding signal (z-score)” value (GalNAc3S(b1-4)GlcNAc3S)?
Answer: -0.338

Question: And the “glycan array binding signal (z-score)” value [14]?
Answer: -0.321

Question: What about the “glycan array binding signal (z-score)” value (GalNAc4S6S(b1-4)GlcNAc) of the same binder?
Answer: -0.337

Source: the supplement of paper PMC8728848
